Experimental data: PubChem BioAssay AID2675 (National Center for Advancing Translational Sciences (NCATS), 2010)
In all, about 280,000 compounds went through this assay and about 100 (0.036%) were called active. The inconclusive results got no clear call from the source; some entries with a clear call stand among them for comparison. Calls come from the whole dose curve; as a rule, active = well fitted inhibition curve with a large enough effect in the signal ratio, with a control signal flat (not every such curve was filed as active); inconclusive = small, poorly fitted or top-dose-only effect, or effect the other way, or a change in a side signal; inactive = no such curve, though single readings can be large or run the other way; the % refers to the signal ratio. Potencies of inconclusive entries are doubtful fits and often do not repeat. “Side channel” marks fits to a control or component signal instead of the main read-out.

Target: Muscleblind-like protein 1 (Homo sapiens) (UniProt Q9NR56)
Assay: qHTS Assay for Inhibitors of MBNL1-poly(CUG) RNA binding
Conditions: TR-FRET MBNL1-His/biotin-(CUG)12 binding, 665/545 ratio; series mostly up to 57.5 µM
How it was run: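 Compound titration spanned 92 nM–58 uM against the MBNL1-His/biotin-(CUG)12 complex. After 60 min at room temperature with 5 nM streptavidin-XL665 and 0.055 ng/ul terbium anti-His, ratiometric 665/545 nm emission (Ex 340 nm) normalized to controls.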
Potency is the fitted concentration of half-maximal effect; tags give direction and shape of the fitted curve or compound fluorescence and quenching.

Chain of UniProt Q9NR56 (Q9NR56 whole entry, looked up): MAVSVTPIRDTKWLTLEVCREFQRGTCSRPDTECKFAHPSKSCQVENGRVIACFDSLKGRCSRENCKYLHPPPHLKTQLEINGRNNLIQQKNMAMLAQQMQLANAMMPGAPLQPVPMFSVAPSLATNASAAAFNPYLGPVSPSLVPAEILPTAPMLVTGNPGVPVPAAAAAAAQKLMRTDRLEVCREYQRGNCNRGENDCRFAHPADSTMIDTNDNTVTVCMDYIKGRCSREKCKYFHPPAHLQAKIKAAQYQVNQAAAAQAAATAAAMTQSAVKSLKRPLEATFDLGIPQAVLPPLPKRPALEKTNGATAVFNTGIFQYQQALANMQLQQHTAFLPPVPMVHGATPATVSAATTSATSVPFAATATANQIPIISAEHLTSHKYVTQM

| SMILES | Potency |
| --- | --- |
| Cn1cccc1Cc1nnc(SCC(=O)Nc2ccc(F)cc2)n1-c1ccc(F)cc1 | inactive |
| O=C(/C=C/c1ccc([N+](=O)[O-])s1)N1CCN(c2ccccc2)CC1 | inconclusive: 39.8 µM [quencher, side channel, single point] |
| O=C1ON=C(c2ccc([N+](=O)[O-])cc2)/C1=C/c1ccccc1O | inconclusive: 15.8 µM [quencher, side channel, partial curve] |
| COc1ccc(C(=O)N2CCc3cc(OC)c(OC)cc3C2c2cccc([N+](=O)[O-])c2)cc1 (configuration not stated) | inconclusive: 2.82 µM [quencher, side channel, single point] |
| O=S(=O)(Nc1ccc(O)c2ccccc12)c1cccs1 | inconclusive: 17.8 µM [quencher, side channel, partial curve] |
| CCOC(=O)N1CCc2c(sc(NC(=O)c3ccc(Cl)s3)c2C(N)=O)C1 | inactive |
| CC(=O)Nc1ccc(NCN2C(=O)[C@@H]3[C@H]4CC[C@H](C4)[C@@H]3C2=O)cc1 | inactive |
| CCCCN(CC)C(=O)C1CCC(CNS(=O)(=O)c2cccc3nsnc23)CC1 (configuration not stated) | inconclusive: 25.1 µM [quencher, partial curve] |
| O=C(/C=C/c1ccco1)NC1=NCCS1 | inconclusive: 0.1 µM [quencher, side channel, full curve, poor fit] |
| CCc1c(-c2ccccc2)nc2nc(C)c(C)nn12 | inconclusive: 15.8 µM [quencher, side channel, partial curve] |
| Cc1cnc(NC(=O)c2ccc(-c3nc4ccccc4s3)o2)s1 | inconclusive: 17.8 µM [quencher, side channel, single point] |
| COc1ccccc1N(CN1C(=O)c2ccccc2C1=O)C(=O)c1cccnc1 | inconclusive: 25.1 µM [quencher, side channel, single point] |
| CCn1nnc(NC(=O)c2cccnc2)n1 | inactive |
| O=C(CN1CCN(C(=O)c2ccco2)CC1)Nc1cccc([N+](=O)[O-])c1 | inconclusive: 20 µM [quencher, side channel, single point] |
| COc1cc(C2Nc3ccc4ccccc4c3C3=C2C(=O)CC(C)(C)C3)ccc1OC(C)C(=O)O (configuration not stated) | inconclusive: 25.1 µM [quencher, side channel, single point] |
| CCc1ccc(-c2cc(C(F)(F)F)n3nc(C(=O)Nc4cnn(Cc5ccc(C)cc5)c4)cc3n2)s1 | inactive |
| Cc1c(O)cc2c(c1O)C(=O)CC(c1ccc(O)cc1)O2 (configuration not stated) | inconclusive: 126 µM [inhibitor, partial curve, poor fit] |
| CCCC(=O)N1CCN(Cc2ccc3c(c2)OCO3)CC1 | inactive |
| COc1cc(/C=N/NC(=O)C2=NNC(=O)C2C)ccc1O (configuration not stated) | inconclusive: 39.8 µM [quencher, side channel, partial curve] |

| SMILES | Potency |
| --- | --- |
| Cc1cc(C)cc(OCC(=O)N2N=C(C(F)(F)F)CC2(O)C(C)(C)C)c1 (configuration not stated) | inconclusive: 0.141 µM [quencher, side channel, full curve, poor fit] |
| CS(=O)(=O)N1CCN(c2ccccc2NC(=O)c2ccc([N+](=O)[O-])o2)CC1 | inconclusive: 8.91 µM [quencher, side channel, partial curve] |
| Cc1nc2[nH]onc2c2nccc(=O)c12 | inconclusive: 20 µM [quencher, side channel, partial curve] |
| O=C(N/N=C1\CCCc2ccccc21)c1cccc([N+](=O)[O-])c1 | inconclusive: 15.8 µM [quencher, side channel, partial curve] |
| O=c1oc2cc(Oc3ccc(C(F)(F)F)cc3[N+](=O)[O-])ccc2c2c1CCCC2 | inconclusive: 12.6 µM [quencher, side channel, partial curve] |
| O=[N+]([O-])c1ccc(N2CCN(S(=O)(=O)c3ccccc3)CC2)c2cccnc12 | inconclusive: 7.94 µM [quencher, side channel, partial curve] |
| Cc1ccc(CSCC(=O)Nc2c(C)n(C)n(-c3ccccc3)c2=O)cc1 | inconclusive: 0.891 µM [quencher, side channel, single point] |
| COc1ccc(NC(=O)C(=O)N2N=C3CCCCC3C2(O)C(F)(F)F)cc1 (configuration not stated) | inconclusive: 6.31 µM [inhibitor, single point] |
| CC(=O)NNC(=S)Nc1cc(S(=O)(=O)N(C)C)ccc1C | inconclusive: 7.94 µM [fluorescent, side channel, full curve, poor fit] |
| O=C(COc1cc2oc(=O)cc(-c3ccccc3)c2cc1Cl)NCCN1CCOCC1 | inconclusive: 17.8 µM [quencher, side channel, partial curve] |
| CC1=NN(C(=O)c2ccc(Cn3ccc([N+](=O)[O-])n3)cc2)C(O)(C(F)(F)F)C1 (configuration not stated) | inconclusive: 35.5 µM [quencher, side channel, single point] |
| CCCCCCc1c(O)c2ccccc2[nH]c1=O | inactive |
| CSc1nc(=S)n(-c2ccc([N+](=O)[O-])cc2)c(C)c1C(C)=O | inconclusive: 11.2 µM [quencher, side channel, partial curve] |
| O=C(Nc1nc2ccccc2n1Cc1ccccc1)c1ccc(COc2ccccc2[N+](=O)[O-])o1 | inactive |
| COc1cc(NC(=O)c2cccnc2)ccc1-c1cc2ccccc2oc1=O | inconclusive: 17.8 µM [quencher, side channel, partial curve] |
| O=C(Nc1cccc([N+](=O)[O-])c1)N1CCCc2ccccc21 | inconclusive: 28.2 µM [quencher, side channel, partial curve] |
| Cc1ccc(-c2nnc(Nc3ccc(O)cc3)c3ccccc23)cc1S(=O)(=O)NCCO | inconclusive: 7.94 µM [quencher, side channel, partial curve] |
| COc1ccc(Cl)cc1C(=O)Nn1c(-c2cccs2)nc2ccccc2c1=O | inconclusive: 39.8 µM [fluorescent, single point] |
